Data reported in PubChem BioAssay AID248 (DTP/NCI, 2004).
Toxic doses and inconclusive results are not listed. Some entries of the source have several records that differ or are many. They are shown here; other results are not. The source may hold further records. Values that stand side by side are repeated measurements (runs, samples, wells, individuals or studies). Marks in square brackets tell the records apart. The letters are not those of the source and start again with each entry. Signs of the kind (2×) count equal records among those shown.

Test system: L1210 leukemia ip in BDF1 mice, survival T/C
Test: NCI In Vivo Anticancer Drug Screen. Data for tumor model L1210 Leukemia (intraperitoneal) in B6D2F1 (BDF1) mice
Conditions: higher = longer survival

OCC1OC(n2cncn2)C(O)C1O (configuration not stated)
T/C (endpoint: mean survival time, dose: 200.0 mg/kg/injection, schedule: Q01DX005 (ip), vehicle: saline): 110 % of control and 168 % of control

Nc1nc(N)[n+]([O-])c(N)c1NCO
T/C (endpoint: mean survival time, dose: 200.0 mg/kg/injection, schedule: Q01DX001 (ip), vehicle: other): 98 % of control and 161 % of control

O=C(O)CCCc1ccc(N(CCCl)CCCl)cc1
T/C (endpoint: mean survival time, dose: 4.0 mg/kg/injection, schedule: Q08HX027 (ip), vehicle: acetone): 94 % of control and 165 % of control

Cn1cnc([N+](=O)[O-])c1Sc1nc(N)nc2nc[nH]c12
T/C (endpoint: mean survival time, dose: 400.0 mg/kg/injection, schedule: Q01DX001 (ip), vehicle: saline): 124 % of control and 166 % of control
T/C (endpoint: median survival time, dose: 5.0 mg/kg/injection, schedule: Q01DX009 (ip), vehicle: saline): 115 % of control and 168 % of control

O=C1OC2CCCCC2/C1=C/N1CCCCC1 (configuration not stated)
T/C (endpoint: mean survival time, dose: 100.0 mg/kg/injection, schedule: Q04DX002 (ip), vehicle: Klucel (hydroxypropylcellulose) (HPC)): 88 % of control and 166 % of control

CCOC(=O)CCOc1ccccc1N(CCCl)CCCl
T/C (endpoint: mean survival time, dose: 5.8 mg/kg/injection, schedule: Q01DX Z (ip), vehicle: methylcellulose (MC)): 110 % of control and 155 % of control

CC[C@]12CN3CCc4c([nH]c5ccccc45)[C@@](C(=O)OC)(c4cc5c(cc4OC)N(C)[C@H]4[C@@](O)(C(=O)OC)[C@H](OC(C)=O)[C@]6(CC)C=CCN7CC[C@]54[C@@H]76)CC(C3)[C@H]1O2 (some centres not stated)
T/C (endpoint: mean survival time, dose: 0.75 mg/kg/injection, schedule: Q01DX009 (ip), vehicle: saline): 169 % of control [sample A] and 106 % of control (2×) [sample B]
T/C (endpoint: mean survival time, dose: 3.0 mg/kg/injection, schedule: Q01DX009 (ip), vehicle: saline): 168 % of control [sample A] and 111 % of control, 116 % of control [sample B]
T/C (endpoint: mean survival time, dose: 6.0 mg/kg/injection, schedule: Q01DX009 (ip), vehicle: saline): 169 % of control [sample A] and 122 % of control (2×) [sample B]

CN(N=O)C(=O)N[C@@H](C=O)[C@@H](O)[C@H](O)[C@H](O)CO
T/C (endpoint: mean survival time, dose: 25.0 mg/kg/injection, schedule: Q01DX009 (ip), vehicle: water): 115 % of control and 153 % of control
T/C (endpoint: mean survival time, dose: 100.0 mg/kg/injection, schedule: Q01DX009 (ip), vehicle: water): 95 % of control and 171 % of control
